# From article PMC4336329 (PLoS ONE, 2015)
# In all, about 310,000 compounds went through this assay and about 2,200 (0.71%) showed an effect of 50% or more. Effects have a minus sign here. Some of the results follow.
# Target: human ether-à-go-go-related gene (hERG) potassium channel (human, UniProt Q12809)
# Assay: primary screen, population patch clamp on CHO cells stably expressing hERG
# Sequence of human ether-à-go-go-related gene (hERG) potassium channel (Q12809 whole entry, looked up): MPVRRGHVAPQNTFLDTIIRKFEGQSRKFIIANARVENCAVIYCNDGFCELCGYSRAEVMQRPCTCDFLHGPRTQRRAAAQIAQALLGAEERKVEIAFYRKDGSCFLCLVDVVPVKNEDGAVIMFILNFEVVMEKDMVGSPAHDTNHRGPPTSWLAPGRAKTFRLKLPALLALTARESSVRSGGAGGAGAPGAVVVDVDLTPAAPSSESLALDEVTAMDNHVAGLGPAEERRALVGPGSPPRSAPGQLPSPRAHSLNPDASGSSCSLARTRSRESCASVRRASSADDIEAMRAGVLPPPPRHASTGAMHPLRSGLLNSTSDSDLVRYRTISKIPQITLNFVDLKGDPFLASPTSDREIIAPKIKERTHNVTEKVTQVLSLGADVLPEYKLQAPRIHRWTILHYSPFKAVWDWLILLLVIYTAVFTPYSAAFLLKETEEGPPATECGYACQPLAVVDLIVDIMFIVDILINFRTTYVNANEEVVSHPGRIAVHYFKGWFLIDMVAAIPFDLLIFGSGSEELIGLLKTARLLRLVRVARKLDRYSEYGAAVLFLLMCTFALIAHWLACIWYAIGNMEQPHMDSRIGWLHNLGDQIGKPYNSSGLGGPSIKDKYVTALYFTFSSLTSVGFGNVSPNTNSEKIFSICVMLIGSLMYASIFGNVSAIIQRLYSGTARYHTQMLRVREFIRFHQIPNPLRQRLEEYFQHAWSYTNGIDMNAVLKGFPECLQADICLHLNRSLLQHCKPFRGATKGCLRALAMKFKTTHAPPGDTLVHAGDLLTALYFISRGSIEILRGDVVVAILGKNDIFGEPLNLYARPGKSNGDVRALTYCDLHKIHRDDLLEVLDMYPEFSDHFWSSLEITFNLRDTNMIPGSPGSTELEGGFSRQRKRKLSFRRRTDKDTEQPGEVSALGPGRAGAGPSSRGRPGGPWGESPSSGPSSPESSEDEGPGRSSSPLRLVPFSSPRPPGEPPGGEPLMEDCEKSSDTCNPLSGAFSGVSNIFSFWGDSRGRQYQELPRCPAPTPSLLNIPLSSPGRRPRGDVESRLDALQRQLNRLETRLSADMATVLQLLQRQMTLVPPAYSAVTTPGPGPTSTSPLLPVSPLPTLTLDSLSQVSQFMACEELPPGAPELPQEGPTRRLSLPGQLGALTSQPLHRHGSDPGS
row,Structure (SMILES),"hERG current change (%, negative = inhibition) at 1uM [%]"
1,CCOC(=O)[C@@H]1[C@H]2COc3ccc(Br)cc3[C@@H]2N2C(=O)N(c3ccc(C(F)(F)F)cc3)C(=O)[C@]12C,11.8
2,COc1cc(OC)cc(C(=O)OC(C)C(=O)NC2CCCc3ccccc32)c1 (stereo not shown),13.5
3,O=C(Nc1ccnn1C1CCN(Cc2c(F)cccc2Cl)CC1)C1CCCC1,2.88
4,CCOC(=O)c1sc(-c2ccc(Cl)cc2Cl)nc1O,16.6
5,O=C(CSc1nnc2ccc(-c3cccnc3)nn12)Nc1ccc(F)cc1F,-36.3
6,c1ccc(-n2c(SCC3CCCCO3)nnc2-c2cccs2)cc1 (stereo not shown),10.8
7,Cc1ccc(Cn2cccc(NC(=O)NCc3ccccc3)c2=O)cc1,-1.17
8,COc1cccc(-c2cc(C(=O)NCCCn3ccnc3)no2)c1,6.26
9,CC(C)(C)NS(=O)(=O)c1cccc2nsnc12,20.2
10,CCCC(=O)Oc1ccc(N(C(=O)CCC)S(=O)(=O)c2cccs2)cc1,8.95
11,Cc1cc(-c2ccc(N3C(=O)CCC3=O)c(C)c2)ccc1N1C(=O)CCC1=O,13.3
12,Cc1nc(-c2ccccc2)sc1C1(C)CC(c2ccc(C#N)cc2)=NO1 (stereo not shown),8.44
13,CC(NC(=O)NC1CCCCC1)C(c1cccs1)N1CCN(Cc2ccccc2)CC1 (stereo not shown),-7.01
14,O=C(NCC1CCN(S(=O)(=O)c2ccccc2)CC1)Nc1ccc(F)cc1F,5.22
15,CCc1nnc(NS(=O)(=O)c2ccc(N/C=C\C(=O)c3ccc(F)cc3)cc2)s1,26
16,Cc1ccc(CC(CC(=O)O)C(=O)Nc2ccc(Cl)cc2)cc1 (stereo not shown),7.67
17,COc1ccc(C(=O)c2c(-c3ccc(OC)cc3)oc3ccccc23)cc1,9.63
18,O=C(NC1CCCc2ccccc21)c1cc(F)cc(F)c1 (stereo not shown),15.2
19,N#C/C(=C\c1ccc(OCc2ccc(C(=O)O)cc2)cc1)C(=O)N1CCOCC1,-9.21
20,COc1ccc(/C(O)=C2\C(=O)C(=O)N(CC3CCCO3)C2c2cc(OC)ccc2OC)cc1 (stereo not shown),2.86
21,CCCn1c(=O)c(C(=O)N/N=C/c2ccccc2F)c(O)c2ccccc21,12.1
22,Cc1ccc(NC(=O)c2ccc(S(=O)(=O)C(F)F)cc2)c(C)c1,-4.11
23,COc1ccc2cc(S(=O)(=O)N3CCCCCC3)ccc2c1,11
24,Cc1ccc(CN2CN(S(=O)(=O)c3cccs3)c3nc4ccccc4nc32)cc1,9.27
25,Cc1csc(SCC(=O)Nc2nncs2)n1,4.89
26,O=P(Cc1ccncc1)(c1ccccc1)c1ccccc1,3.46
27,Cc1cc(C)n(S(=O)(=O)c2ccc(C)c(C)c2)n1,9.86
28,C=CCNC(=S)Nc1ccc(Cl)cc1F,19.2

row,Structure (SMILES),"hERG current change (%, negative = inhibition) at 1uM [%]"
1,COc1ccc(CCn2c(C)cc(C(=O)COC(=O)c3cnc(C)cn3)c2C)cc1,-5.52
2,COc1ccc(NC(=O)c2ccco2)cc1S(=O)(=O)N1CCCCC1,-22.3
3,CCC1(O)CC(C(=O)OC)=NN1C(=O)c1ccccc1 (stereo not shown),11.5
4,O=C(COc1ccc(/C=N/NC(=O)c2ccc(O)cc2)cc1)Nc1ccc([N+](=O)[O-])cc1,9.71
5,COc1ccc(-c2cc(C(=O)NCCCn3ccnc3)c3ccccc3n2)c(OC)c1,6.7
6,CC(C)=C(NC(=O)c1ccccc1)C(=O)N1CCOCC1,6.8
7,COc1ccccc1N1CCN(c2ccc(N3C(=O)CCC3=O)cc2[N+](=O)[O-])CC1,12.9
8,COc1ccccc1N1CCN(S(=O)(=O)Cc2ccccc2Cl)CC1,11.9
9,CCOC(=O)C1(Cc2ccccc2)CCN(Cc2nccn2CC)CC1,8.81
10,COc1cc(NC(=O)c2cccs2)c(OC)cc1NC(=O)CCC(=O)Nc1cccc2ncccc12.Cl,6.33
11,C/C(=N/NC(=O)c1cccs1)c1ccc(N2CCOCC2)cc1,13.5
12,CC1(C)CC(CCNC(=O)CCl)(c2ccccc2)CCO1 (stereo not shown),16.4
13,O=C(N/N=C/C=C/c1ccccc1[N+](=O)[O-])c1cc(-c2cccnc2)nc2ccccc12,-0.706
14,Cc1ccc(/C=N/NC(=O)Cn2nc(C)c([N+](=O)[O-])c2C)o1,12.6
15,COC(=O)c1sc(C(F)(F)F)c(-c2ccccc2)c1S(=O)(=O)NC(C)(C)C,6.34
16,CC1=C(C(=O)OC(C)C)C(c2coc3ccccc3c2=O)C2=C(CCCC2=O)N1 (stereo not shown),13.8
17,Cc1onc(-c2ccccc2)c1C(=O)N/N=C/C=C/c1ccccc1,12.9
18,CC(C)NC(=O)CN(Cc1ccc2c(c1)OCO2)C(=O)CCC(=O)Nc1ccccn1,9.94
19,Cc1cc(C)n(-c2nc3c(c(=O)[nH]c(=O)n3C)n2Cc2ccc(F)cc2)n1,2.14
20,Cc1c(Cl)c([N+](=O)[O-])nn1Cc1ccc(C(=O)NN)o1,1.95
21,Cc1cc(C)c2[nH]c(=O)c(CN(CC3CCCO3)C(=O)c3cnccn3)cc2c1 (stereo not shown),-12.6
22,O=C(Nc1cccc(C(F)(F)F)c1)Nn1cnnc1,19
23,COc1ccc(CNC(=O)CNC(=O)c2cccs2)c(OC)c1,15.9
24,O=C(CN(CCc1ccccc1)S(=O)(=O)c1ccc(Cl)cc1)N/N=C/c1ccccc1C(=O)O,10.3
25,Cc1ccc(C2=N/C(=C\c3cccnc3)C(=O)O2)cc1,3.52
26,COc1ccc(C(=O)C2CCCN(Cc3cnc(N4CCOCC4)s3)C2)cc1F (stereo not shown),-17.9
27,Cc1cc(NC(=O)c2ccc3c(c2)C(=O)N(Cc2cccnc2)C3=O)no1,16.6
